{"source": "the supplement of paper PMC3334620", "note": "The full ranking holds about 33,000 sequences; the median of “E-score (-0.5 to 0.5)” is about -0.054, and the highest 2% start at about 0.39. The list shows a part of the results."}
{"molecular_target": "Ylr278c (UniProt Q05854)", "test": "PBM E-score (8-mer binding enrichment) (E-score (-0.5 to 0.5)); higher = stronger / more preferred TF binding; most listed sequences are background and not binding sites", "details": "protein concentration: 200 nM; construct: GST-DNA-binding domain", "method_in_brief": "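Masliner-normalised scans of fluorescent anti-GST signal were the basis for scoring. That signal came from GST-tagged yeast transcription factors applied at about 100-200 nM to double-stranded universal all-10-mer Agilent arrays on fresh or once-stripped slides. Each ungapped eight-base word, pooled with its reverse complement, received an E-score from the Universal PBM Analysis Suite.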"}
{"sequence": "AGGTGCCA", "PBM E-score": -0.167}
{"sequence": "CTTGATGC", "PBM E-score": -0.0971}
{"sequence": "AGATGGAG", "PBM E-score": -0.124}
{"sequence": "ATAATGAT", "PBM E-score": -0.0458}
{"sequence": "GAAAAAAC", "PBM E-score": 0.0368}
{"sequence": "CTTTCTCA", "PBM E-score": 0.00043}
{"sequence": "ATACCACA", "PBM E-score": -0.162}
{"sequence": "ATACGGTA", "PBM E-score": -0.0192}
{"sequence": "GCGGTAGC", "PBM E-score": 0.107}
{"sequence": "GAGTAGGC", "PBM E-score": -0.00886}
{"sequence": "CACCTGGC", "PBM E-score": -0.202}
{"sequence": "ACCCAACC", "PBM E-score": 0.0171}
{"sequence": "TCGGCAGA", "PBM E-score": 0.18}
{"sequence": "AAGAACTT", "PBM E-score": -0.0852}
{"sequence": "ACCTAACC", "PBM E-score": 0.0688}
{"sequence": "CCAATCTC", "PBM E-score": 0.077}
{"sequence": "CCAAATAA", "PBM E-score": -0.0594}
{"sequence": "GTATCTTA", "PBM E-score": 0.0804}
{"sequence": "ATGGTATG", "PBM E-score": -0.0135}
{"sequence": "AAATCAAG", "PBM E-score": -0.0742}
{"sequence": "ACATGACA", "PBM E-score": -0.126}
{"sequence": "ACCGCTTC", "PBM E-score": -0.0102}
{"sequence": "CCAGGTGA", "PBM E-score": -0.398}
{"sequence": "AGGGGGAC", "PBM E-score": -0.309}
{"sequence": "AACGAGGT", "PBM E-score": -0.203}
{"sequence": "GTGTTTTA", "PBM E-score": -0.0233}
{"sequence": "CCTCCGGA", "PBM E-score": 0.467}
{"sequence": "CCGAGCAG", "PBM E-score": 0.139}
{"sequence": "AACACCAG", "PBM E-score": -0.291}
{"sequence": "ATTAACCA", "PBM E-score": -0.0281}
{"sequence": "TAGGGGGA", "PBM E-score": -0.102}
{"sequence": "AACTGGTA", "PBM E-score": -0.0501}
{"sequence": "TTTCAAAA", "PBM E-score": 0.0139}
{"sequence": "TCAGCAGA", "PBM E-score": -0.295}
{"sequence": "AGTACACT", "PBM E-score": -0.249}
{"sequence": "GTTCCGAA", "PBM E-score": 0.373}
{"sequence": "ACGAGGCT", "PBM E-score": -0.0944}
{"sequence": "CTAATGGA", "PBM E-score": -0.0575}
{"sequence": "CTATATTC", "PBM E-score": -0.0771}
{"sequence": "CCCCGATC", "PBM E-score": 0.374}
{"sequence": "GGGCATGA", "PBM E-score": -0.206}
{"sequence": "CGGTCTCA", "PBM E-score": -0.12}
{"sequence": "GTCCCTCA", "PBM E-score": -0.293}
{"sequence": "AGTTAAAT", "PBM E-score": -0.0916}
{"sequence": "GTCAAGCA", "PBM E-score": -0.136}
{"sequence": "TAAGTGGA", "PBM E-score": -0.0663}
{"sequence": "AGTCGCTG", "PBM E-score": -0.25}
{"sequence": "ATTCAACC", "PBM E-score": -0.00677}
{"sequence": "ACAGTAAG", "PBM E-score": -0.13}
{"sequence": "ATCTCCAA", "PBM E-score": -0.0722}
{"sequence": "CCGGAAGC", "PBM E-score": 0.369}
{"sequence": "TAACTGCA", "PBM E-score": -0.22}
{"sequence": "CTACAATA", "PBM E-score": 0.0333}
{"sequence": "CGCTCGTA", "PBM E-score": 0.0511}
{"sequence": "AAGTGAGA", "PBM E-score": -0.0754}
{"sequence": "GCTACAAC", "PBM E-score": 0.0303}
{"sequence": "TAGCGGGA", "PBM E-score": 0.0736}
{"sequence": "ATTCTCTC", "PBM E-score": -0.00407}
{"sequence": "ATCATCAA", "PBM E-score": -0.0898}
{"sequence": "TCGATGAA", "PBM E-score": -0.11}
{"sequence": "GCGGTGAC", "PBM E-score": 0.0764}
{"sequence": "TAAGGCCA", "PBM E-score": -0.0843}
{"sequence": "CTACGCGC", "PBM E-score": 0.0969}
{"sequence": "GCGATTGA", "PBM E-score": -0.208}
{"sequence": "ACAGTTCT", "PBM E-score": -0.0371}
{"sequence": "CGAGCAAG", "PBM E-score": -0.139}
{"sequence": "TCTGCGAA", "PBM E-score": -0.264}
{"sequence": "ACGTGTCA", "PBM E-score": -0.295}
{"sequence": "ACTCAGTA", "PBM E-score": 0.0212}
{"sequence": "GACTCAGC", "PBM E-score": -0.135}
{"sequence": "CCACAAGC", "PBM E-score": -0.28}
{"sequence": "CAACGCCG", "PBM E-score": 0.318}
{"sequence": "CCGTGTAA", "PBM E-score": 0.143}
{"sequence": "CTACTCAA", "PBM E-score": -0.107}
{"sequence": "AAGGCACC", "PBM E-score": 0.0287}
{"sequence": "GCGGGGCA", "PBM E-score": 0.213}
{"sequence": "CAGCTTTC", "PBM E-score": -0.0673}
{"sequence": "AACAGAAG", "PBM E-score": -0.113}
{"sequence": "GCATCTAC", "PBM E-score": -0.0171}
{"sequence": "CTGCTCTC", "PBM E-score": -0.074}
{"sequence": "GACGACCC", "PBM E-score": -0.0612}
{"sequence": "CGCCGTAC", "PBM E-score": 0.163}
{"sequence": "ACTCCGAG", "PBM E-score": 0.478}
{"sequence": "ACCTCGGG", "PBM E-score": 0.0925}
{"sequence": "GAGGGTAA", "PBM E-score": -0.0202}
{"sequence": "ACTCAATG", "PBM E-score": -0.0999}
{"sequence": "GTTTTATA", "PBM E-score": 0.0498}
{"sequence": "ACGATTCT", "PBM E-score": -0.127}
{"sequence": "ACAAAACC", "PBM E-score": 0.148}
{"sequence": "GACAGATC", "PBM E-score": 0.0953}
{"sequence": "AACTCCCT", "PBM E-score": -0.072}
{"sequence": "CATTTATC", "PBM E-score": -0.156}
{"sequence": "TCAAATAA", "PBM E-score": -0.0503}
{"sequence": "ATTTCTCA", "PBM E-score": -0.0965}
{"sequence": "ATGGGTTC", "PBM E-score": -0.204}
{"sequence": "AGGGTATA", "PBM E-score": -0.00042}
{"sequence": "ACTGTAGA", "PBM E-score": -0.16}
{"sequence": "CGGGGTAC", "PBM E-score": 0.313}
{"sequence": "CAGGTCGC", "PBM E-score": -0.101}
{"sequence": "CAGCGTAC", "PBM E-score": -0.0331}
{"sequence": "CTCCTTTC", "PBM E-score": 0.00105}
{"sequence": "AAGCTTTA", "PBM E-score": -0.205}
{"sequence": "GACCCAAC", "PBM E-score": -0.0747}
{"sequence": "CCAAGGCA", "PBM E-score": -0.027}
{"sequence": "ACCGTGTC", "PBM E-score": 0.102}
{"sequence": "ACACTTCC", "PBM E-score": 0.0865}
{"sequence": "AATGTCGC", "PBM E-score": 0.00556}
{"sequence": "GGGTCGAC", "PBM E-score": 0.126}
{"sequence": "CTCCGGCA", "PBM E-score": 0.469}
{"sequence": "GGTCGCAA", "PBM E-score": 0.162}
{"sequence": "GCGGGGGA", "PBM E-score": 0.177}
{"sequence": "ATCACTTG", "PBM E-score": -0.233}
{"sequence": "CCATCACC", "PBM E-score": -0.0277}
{"sequence": "ATATAGGA", "PBM E-score": -0.06}
{"sequence": "GCCTATCA", "PBM E-score": -0.183}
{"sequence": "ATGTGATC", "PBM E-score": -0.126}
{"sequence": "CGTATAAA", "PBM E-score": 0.182}
{"sequence": "CCTAAAGA", "PBM E-score": -0.163}
{"sequence": "GTAATCGA", "PBM E-score": -0.102}
{"sequence": "AGTGGCTA", "PBM E-score": -0.259}
{"sequence": "ACGAACAC", "PBM E-score": -0.0143}
{"sequence": "TGGAAACA", "PBM E-score": -0.165}
{"sequence": "GAGATTCA", "PBM E-score": 0.027}
{"sequence": "AGGCCTTA", "PBM E-score": -0.233}
{"sequence": "TATTATCA", "PBM E-score": -0.0793}
{"sequence": "CAATGACG", "PBM E-score": -0.136}
{"sequence": "ATGTAAGC", "PBM E-score": 0.0127}
{"sequence": "CATGCTTA", "PBM E-score": -0.0818}
{"sequence": "TCTAATCA", "PBM E-score": 0.0217}
{"sequence": "GGATTTTA", "PBM E-score": 0.283}
{"sequence": "CTACGTAG", "PBM E-score": -0.0861}
{"sequence": "AAGCGTCT", "PBM E-score": -0.176}
{"sequence": "AAATCCTG", "PBM E-score": -0.102}
{"sequence": "CACCGTAC", "PBM E-score": -0.0981}
{"sequence": "ACTATCAA", "PBM E-score": -0.0259}
{"sequence": "CCAGCCGA", "PBM E-score": -0.0508}
{"sequence": "CGGAACTC", "PBM E-score": 0.409}
{"sequence": "ACAAGCGG", "PBM E-score": 0.201}
{"sequence": "AATAGACC", "PBM E-score": -0.0149}
{"sequence": "GATGTCAC", "PBM E-score": 0.00498}
{"sequence": "ACCGTAAT", "PBM E-score": 0.0827}
{"sequence": "ATGAGAAC", "PBM E-score": -0.0284}
{"sequence": "ATCATGAC", "PBM E-score": -0.225}
{"sequence": "AAGATCTT", "PBM E-score": 0.0756}
{"sequence": "CGGCGTCA", "PBM E-score": 0.191}
{"sequence": "CTTTTTAA", "PBM E-score": -0.176}
{"sequence": "CTCTGCAG", "PBM E-score": -0.192}
{"sequence": "CCCTTGAC", "PBM E-score": -0.0913}
{"sequence": "CAACTATG", "PBM E-score": -0.0641}
{"sequence": "CGATTTCA", "PBM E-score": 0.0505}
{"sequence": "CAGGACTA", "PBM E-score": -0.0233}
{"sequence": "CTCGTTTA", "PBM E-score": -0.0777}
{"sequence": "CGTTTCCA", "PBM E-score": -0.0556}
{"sequence": "AAGCGGAG", "PBM E-score": 0.355}
{"sequence": "CTCCGTAA", "PBM E-score": 0.41}
{"sequence": "CGCGACAG", "PBM E-score": -0.0451}
{"sequence": "CGCACAGA", "PBM E-score": -0.0706}
{"sequence": "CCCATCTC", "PBM E-score": 0.0175}
{"sequence": "AATGTACC", "PBM E-score": -0.167}
{"sequence": "TGAACTAA", "PBM E-score": -0.162}
{"sequence": "CTCGAGAG", "PBM E-score": -0.176}
{"sequence": "GGATAACC", "PBM E-score": 0.18}
{"sequence": "AAGTTATC", "PBM E-score": -0.0551}
{"sequence": "CCTACTCA", "PBM E-score": 0.0149}
{"sequence": "CGTTTCCC", "PBM E-score": 0.225}
{"sequence": "GTAGGAGA", "PBM E-score": -0.0599}
{"sequence": "AAAGACAG", "PBM E-score": 0.0173}
{"sequence": "CCCAGTAG", "PBM E-score": -0.019}
{"sequence": "GGCATAAA", "PBM E-score": -0.0245}
{"sequence": "GACCTGAC", "PBM E-score": -0.198}
{"sequence": "ACAGTGAA", "PBM E-score": -0.128}
{"sequence": "AGAGGGCG", "PBM E-score": 0.076}
